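Protocol summary: plate cells (96-well), add compound at 5 concentrations, incubate 48 h, interpolate endpoints linearly. At the GI50, growth is halved.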 Activity calls are given as the source filed them. Cut-off read from the data, not from the text of the source: active = GI50 up to about 1.1 µM and inactive = higher.

The values that follow come from ChEMBL document CHEMBL1201862, “PubChem BioAssay data set” (2004).

The test deals with NCI-H322M. As to the kind of experiment: growth of human tumour cells (NCI), 48 h.
As to `Cc1cc(N2CCN(C)CC2)n2nc(-c3ccc(Cl)cc3)nc2n1`, the GI50 is inactive: 69.3 µM.
As for `N#CC1=C(N)N(c2ccccc2)C(c2ccccc2)C1(C#N)C#N` (centres undefined), the figure is inactive: 19.7 µM; as for `N#Cc1c(C#N)c(-c2ccccc2)n(-c2ccccc2)c1N`, inactive: > 100 µM.
Consider `CCC/C=C/c1cc2c(cc1O)CC[C@@H]1[C@@H]2CC[C@]2(C)[C@@H](O)CC[C@@H]12`, for which the GI50 is inactive: 16.9 µM.
As for `O=[N+]([O-])c1cc([N+](=O)[O-])c(/C=C/c2ccc(Cl)c(Cl)c2)cc1/C=C/c1ccc(Cl)c(Cl)c1`, the figure is inactive: 23.8 µM; as for `C[S+]=c1sc2ccccc2s1`, inactive: > 100 µM; as for `COc1ccc(C(=C2C=CC=C2)c2ccc(OC)cc2)cc1`, inactive: 51.9 µM.
Turning to `CC1=CC(=O)/C(=C/NC(=S)c2ccccc2)C(=O)O1`, the GI50 was inactive: > 100 µM.
As for `c1ccc2c(c1)SCCCSCCCS2`, the figure is inactive: > 100 µM.
As for `CCN1CCC(O)(c2ccc(Cl)c(Cl)c2)C(C(=O)c2ccc(Cl)c(Cl)c2)C1` (centres undefined), the figure is inactive: 14.6 µM; as for `C1=C\SS/C=C\SS/C=C\SS/C=C\SS/1`, inactive: > 100 µM; as for `Nn1c(S)nnc1NNC(=O)C(=O)Nc1cc(Cl)c(Cl)cc1Cl`, inactive: > 100 µM.
In the case of `Oc1ccccc1/C=N/N1C(=S)N(c2ccccc2)C(=N\c2ccccc2)/C1=N/c1ccccc1` it was inactive: 14.4 µM; in that of `COC(=O)[C@@H](NS(=O)(=O)CC12CCC(CC1)C2(C)C)C(C)(C)C`, inactive: > 100 µM.
As to `COc1cc(C2C(Cl)C(=O)N2NC(=O)c2ccc(NC(C)=O)cc2)ccc1O` (centres undefined), the GI50 is inactive: > 100 µM.
As for `Clc1ccc2c(c1)[nH]c1c2nc2sccn21`, the figure is inactive: > 100 µM.
In the case of `O=C(NO)c1ccc(OCc2cccc(Cl)c2)cc1` it was inactive: 7.48 µM; in that of `C[C@H]1C(=O)C2=C[C@H]1CCC(=O)[C@]1(C)CCCC(C)(C)[C@H]1C[C@H]2O`, inactive: > 100 µM.
Take `NS(=O)(=O)c1ccc(NC(=O)N/N=C/c2ccccc2O)cc1`: the GI50 was inactive: 90.2 µM.
In the case of `CCOc1ccc(NC(=O)C(=O)C2C(=O)Nc3ccccc3[S+]2[O-])cc1` (centres undefined) it was inactive: > 100 µM; in that of `CCOC(=O)c1cc(C2=C(S)N(CC(C)CC)CC2)c(C(=O)CC)[nH]1` (centres undefined), inactive: 23.9 µM; in that of `CC(C)(C)C1CCC2c3c([nH]c4ccccc34)C3C(=O)N(c4ccc([N+](=O)[O-])cc4)C(=O)C3C2C1` (centres undefined), inactive: 29.4 µM.
Consider `[O-][n+]1onc2c1CCC(=N\O)/C2=N/Nc1ccccc1`, for which the GI50 was inactive: > 100 µM.
In the case of `COc1cc(/C=C(\C#N)c2ccccn2)cc(Br)c1O` it was inactive: > 100 µM; in that of `CCOC(=O)c1c(/C=N\Nc2ccccc2)nc2ccccc2c1-c1ccccc1`, inactive: > 100 µM; in that of `NCCCOCC(=O)O`, inactive: > 100 µM.
As for `CC(=O)NC(CCCCNC(=O)OC(C)(C)C)C(=O)O` (centres undefined), the GI50 is inactive: > 100 µM.
As for `NCCOCn1cc(Cc2cccc(OCc3ccccc3)c2)c(=O)[nH]c1=O`, the figure is inactive: > 100 µM.
In the case of `O=c1c2cccnc2ncn1CCCN1CCOCC1` it was inactive: > 100 µM; in that of `COc1cccc2c(Nc3ccc(S(=O)(=O)NC(C)=O)cc3)c3ccc([N+](=O)[O-])cc3nc12`, inactive: 39.8 µM; in that of `O=C(O)CNS(=O)(=O)c1ccc(NC(=O)c2cccc([N+](=O)[O-])c2)cc1`, inactive: > 100 µM.
In the case of `O=C1CCCn2c3ccccc3c3ccnc1c32` it was inactive: 38.9 µM; in that of `CC(/C=N/N(C)C1=NCCCCN1)=N/N(C)C1=NCCCCN1`, inactive: > 100 µM.
Take `COCc1nc2c(OC)c(-c3nc4ccc(N5CCN(C)CC5)cc4[nH]3)cc(OC)c2[nH]1`: the GI50 is inactive: 75.2 µM.
Consider `COCC1OC(S(=O)(=O)c2ccccc2)C(O)C(OC)C1OC` (centres undefined), for which the GI50 was inactive: > 100 µM.
On to `C#CCOCC12C=CC(O1)C1C(=O)N(C)C(=O)C12` (centres undefined), for which the GI50 is inactive: 70.1 µM.
As for `CCCC(=O)Nc1cc(C(=O)N2C[C@@H]3C[C@]34C2=CC(=O)c2[nH]cc(C)c24)n(COC)c1`, the figure is inactive: 8.75 µM.
Regarding `COc1cc(-c2nccc3cc(OC)c(OC)cc23)ccc1O`, the GI50 is inactive: 49.1 µM.
In the case of `COC(=O)/C=C(\C)C(=O)N(C)c1ccccc1I` it was inactive: > 100 µM; in that of `CC1(C)C[C@H]2C=C(C=O)[C@]34C[C@]3(C(=O)OC4O)[C@H]2C1` (some centres undefined), inactive: 5.52 µM; in that of `Cc1ccc(Sc2ccccc2N)cc1`, inactive: 81.8 µM.
As for `COc1ccc(-c2cc(O)c3nc4ccccc4n3c2)cc1`, the figure is inactive: > 100 µM; as for `Cc1ccnc2sc3ccccc3c(=O)c12`, inactive: 36.6 µM; as for `N#CC1=C(S)N(C2OC(CO)C(O)C(O)C2O)C(c2ccccc2)=CC1c1ccccc1` (centres undefined), inactive: > 100 µM.
In the case of `COC(=O)Nc1nc2cc(Br)ccc2[nH]1` it was inactive: 36.6 µM; in that of `c1ccc(-c2nc3ccccc3nc2SCc2cccnc2)cc1`, inactive: > 100 µM; in that of `Oc1ccc(SCc2ccc(NCc3ccccc3)cc2)cc1`, inactive: 18.6 µM.
With `O=C(O)C1CCCN1C(=O)c1cc(Cl)ccn1` (centres undefined), the GI50 was inactive: > 100 µM.
In the case of `C/C(=N\NS(=O)(=O)c1ccc(C)cc1)C(CN1CCOCC1)C(c1ccccc1)c1c(O)c2ccccc2oc1=O` (centres undefined) it was inactive: > 100 µM.
On to `CC(C)(Oc1ccc(Cl)cc1)C(=O)N(C(=O)N1CCN(c2ccccc2)CC1)c1ccccc1`, for which the GI50 is inactive: 51.6 µM.
In the case of `COC(=O)NNC(c1ccc(Cl)cc1)c1ccc(Cl)cc1` it was inactive: 16.9 µM; in that of `Cc1[nH]c(=O)nc(S)c1C(=O)NC1C2CCCCC2NC2CCCCC21` (centres undefined), inactive: 22.2 µM; in that of `CC(C)(C)OC1=C(OC(C)(C)C)C(O)(c2ccccc2)C1=O` (centres undefined), inactive: > 100 µM.
Consider `O=C(c1cc2ccccc2[nH]1)N1C2CCC1CN(CCOC(c1ccc(F)cc1)c1ccc(F)cc1)CC2` (centres undefined), for which the GI50 was inactive: > 100 µM.
In the case of `Cc1cc(C)n2nc3nc(N)c(C#N)c(-c4ccccc4)c3c2n1` it was inactive: > 100 µM.
In the case of `CC1(C)CC(=O)C2(CC(CSc3ccccc3)C(CS(=O)(=O)c3ccccc3)C2)C(=O)C1` (centres undefined) it was inactive: > 100 µM; in that of `O=C(NCCn1ccnn1)Nc1ccccc1`, inactive: > 100 µM.
As for `CNC(=O)/C=C/C1=CN2C(=O)c3ccc(C)c(O)c3NC(OC)C2C1` (centres undefined), the figure is active: < 0.0177 µM; as for `CC(C)OC(=O)C1=C(O)c2ccccc2S(=O)(=O)N1`, inactive: > 100 µM; as for `Cc1ccc(NCc2nnc3c(-c4ccccc4)nc4ccccc4n23)cc1`, inactive: 25 µM.
Turning to `CCCCCCCCCCN(CCCCCCCCCC)C(=O)COc1c2cc(C(C)(C)C)cc1Cc1cc(C(C)(C)C)cc(c1OCC(=O)N(CCCCCCCCCC)CCCCCCCCCC)Cc1cc(C(C)(C)C)cc(c1OCC(=O)N(CCCCCCCCCC)CCCCCCCCCC)Cc1cc(C(C)(C)C)cc(c1OCC(=O)N(CCCCCCCCCC)CCCCCCCCCC)C2`, the GI50 was inactive: 18.6 µM.
In the case of `NC1=CN(CCCO)C2=N/C(=C\c3ccco3)C(=O)N12` it was inactive: > 100 µM; in that of `CN1/C(=N\c2ccccc2)S/C1=N/c1ccccc1`, inactive: 95.5 µM; in that of `Cc1cc(C)nc(NC(=S)Nc2ccccc2Cl)c1`, inactive: > 100 µM.
In the case of `COC(=O)CCC1=NCC(C)(C)O1` it was inactive: > 10 µM; in that of `O=C1NC(N2CCOCC2)=N/C1=C\c1ccccc1`, inactive: > 100 µM; in that of `COc1ccc2c3c([nH]c2c1[N+](=O)[O-])C(C)N(C)CC3` (centres undefined), inactive: > 100 µM.
As for `Cc1c(-c2ccc(O)c(O)c2)oc(=O)c2c(O)cccc12`, the figure is inactive: 19.6 µM; as for `CCOC(=O)Cn1nnc2cc(Nc3nc4ccccc4nc3C(=O)OCC)ccc21`, inactive: > 100 µM; as for `CCN(CC)CCNc1ccc([N+](=O)[O-])c2nc3ccccc3c(N)c12`, active: 0.277 µM.
As to `O=C1N/C(=N/N=C/c2cccs2)N/C1=C\c1ccco1`, the GI50 was inactive: > 100 µM.
With `Cn1ncc2[nH]cnc2c1=S`, the GI50 was inactive: > 100 µM.
In the case of `CN1CCN(CCNc2ccc(CO)c3sc4ccccc4c(=O)c23)CC1` it was inactive: 7.28 µM; in that of `COc1cccc2c1C(=O)c1c(O)c3c(c(O)c1C2=O)C[C@@](O)(C(C)=O)C[C@@H]3OC1CC(N(Cc2ccccc2)Cc2ccccc2)C(O)C(C)O1` (some centres undefined), inactive: 14.4 µM.
Turning to `CCOC(=O)/C=C(\C(=O)OCC)n1cc(C)c(=O)n(Cc2cnnn2CCCCOC(C)=O)c1=O`, the GI50 is inactive: 24 µM.
For `Cc1cs/c(=N\C(P(=O)(O)O)P(=O)(O)O)n1C`, the GI50 is inactive: > 100 µM.
With `C=C(C)C1CC[C@]2(C(=O)O)CCC3(C)[C@H](CCC4[C@@]5(C)CC[C@H](OC6OC(CO)C(O)C6OC6OC(C)C(O)C(O)C6O)[C@@](C)(CO)C5CC[C@]43C)C12` (some centres undefined), the GI50 is inactive: > 100 µM.
In the case of `CCOC1c2cc(C(C)C)c(O)c(O)c2[C@@]23CCCC(C)(C)C2C1OC3=O` (some centres undefined) it was inactive: > 100 µM; in that of `CCN(CC)CCNc1ccc2nnn3c4ccc(C)cc4c(=O)c1c23`, inactive: 6.89 µM; in that of `CCOC(=O)c1cnc2oc3ccc(O)cc3c2c1C`, inactive: 71 µM.
On to `CN1CCN(c2nc3cc(F)ccc3n3cccc23)CC1`, for which the GI50 was inactive: 28.4 µM.
As for `BC(=O)NC(CC(C)C)C(=O)NCC(=O)NC1c2ccsc2C(=O)C1O.CN(C)C` (centres undefined), the figure is inactive: > 100 µM; as for `CC1=NN(c2nc(N)nc(CSc3cc(Cl)c(C)cc3S(N)(=O)=O)n2)C(C)(C)C1`, inactive: > 10 µM; as for `CC(C)C[C@H](NC(=O)[C@H](Cc1ccccc1)NC(=O)CCc1ccccc1)B(O)O`, active: < 0.01 µM.
